Key:
[1] = target: T1, human Orexin 1 receptor (Homo sapiens, UniProt O43613); assay: cell-based
T1 sequence (O43613 1-425): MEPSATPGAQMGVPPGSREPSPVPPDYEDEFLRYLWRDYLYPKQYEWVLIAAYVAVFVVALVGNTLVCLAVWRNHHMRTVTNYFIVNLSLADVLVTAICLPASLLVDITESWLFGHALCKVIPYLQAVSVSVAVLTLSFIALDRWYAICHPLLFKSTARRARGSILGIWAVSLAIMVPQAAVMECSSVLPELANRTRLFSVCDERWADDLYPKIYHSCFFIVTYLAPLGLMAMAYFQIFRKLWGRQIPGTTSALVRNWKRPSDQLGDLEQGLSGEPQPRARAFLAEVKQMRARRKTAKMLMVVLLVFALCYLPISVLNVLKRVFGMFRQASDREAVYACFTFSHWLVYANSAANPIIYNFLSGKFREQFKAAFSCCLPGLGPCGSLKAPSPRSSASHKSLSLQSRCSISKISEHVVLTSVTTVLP

[2] = target: T1, human Orexin 1 receptor; conditions: for fold higher potency: versus Example 84 in WO2016/034882
[3] = Assay A OX1R Kb [nM] (Orexin A concentration), 50 nM Orexin A
[4] = Assay A OX1R Kb [nM] (Orexin A concentration), 0.5 nM Orexin A

Question: Which results are given for `CCN(C(=O)c1ccc(F)cc1-n1nccn1)[C@@H](C)CNc1ncc(C(F)(F)F)cn1` [Example 2]?
Answer: Kb [1, 3]: 0.188 nM; OX2R Kb/OX1R Kb [2]: 343

Question: For `CCN(C(=O)c1ccc(F)c(F)c1-n1nccn1)[C@@H](C)CNc1ncc(C(F)(F)F)cn1` [Example 4], which Kb [1, 3] is on record?
Answer: 0.096 nM

Question: And the “OX2R Kb/OX1R Kb” value [2]?
Answer: 489

Question: What does the source list for `CCN(C(=O)c1cc(F)ccc1-n1nccn1)[C@@H](C)CNc1ncc(C(F)(F)F)cn1` [Example 5]?
Answer: Kb [1, 3]: 0.083 nM; OX2R Kb/OX1R Kb [2]: 425

Question: Which Kb ([1]; Assay A: OX1R Kb, 0.5 nM Orexin A concentration) does the source give for `Cc1nc(C(=O)N(C)CCNc2ncc(Br)cn2)c(-c2ccc(F)cc2)s1` [Example 6 in WO03/051872, reference compound] here?
Answer: 30 nM

Question: And the “OX2R Kb/OX1R Kb” value [2]?
Answer: OX2RKb/OX1R Kb = 3.4

Question: Which results are given for `CCN(C(=O)c1c(F)cccc1-n1nccn1)[C@@H](C)CNc1ncc(C(F)(F)F)cn1` [Example 7]?
Answer: Kb [1, 3]: 0.141 nM; OX2R Kb/OX1R Kb [2]: 237; fold more potent at OX1R ([2]; versus Example 91 in WO2016/034882): 25 fold

Question: With `CCN(C(=O)c1cc(C#N)ccc1-n1nccn1)[C@@H](C)CNc1ncc(C(F)(F)F)cn1` [Example 8] as the compound, how does the Kb [1, 3] read?
Answer: 0.292 nM

Question: And the “OX2R Kb/OX1R Kb” value [2]?
Answer: 114

Question: What does the source list for `CCN(C(=O)c1cc(F)cnc1-n1nccn1)[C@@H](C)CNc1ncc(C(F)(F)F)cn1` [Example 10]?
Answer: Kb [1, 3]: 1.12 nM; OX2R Kb/OX1R Kb [2]: 949

Question: With `CCN(C(=O)c1cccc(F)c1-c1ncccn1)[C@@H](C)CNc1ncc(C(F)(F)F)cn1` [Example 11] as the compound, how does the Kb [1, 3] read?
Answer: 0.014 nM

Question: What about the “OX2R Kb/OX1R Kb” value [2] of the same compound?
Answer: 1379

Question: What about the fold higher potency [2] of the same compound?
Answer: at least 20 fold

Question: With `CCN(C(=O)c1nc(C)ccc1-n1cccn1)[C@@H](C)CNc1ncc(C(F)(F)F)cn1` [Example 12] as the compound, how does the Kb [1, 3] read?
Answer: 0.614 nM

Question: And the “OX2R Kb/OX1R Kb” value [2]?
Answer: 210

Question: What about the “fold higher potency at OX1R” value ([2]; versus Example 90 in WO2016/034882) of the same compound?
Answer: at least 3 fold

Question: Which results are given for `CCN(C(=O)c1c(F)cccc1-c1ncccn1)[C@@H](C)CNc1ncc(C(F)(F)F)cn1` [Example 13]?
Answer: Kb [1, 3]: 0.0925 nM; OX2R Kb/OX1R Kb [2]: 670; fold higher potency [2]: at least 20 fold

Question: Which Kb [1, 3] does the source give for `CCN(C(=O)c1ccccc1-c1noc(C)n1)[C@@H](C)CNc1ncc(C(F)(F)F)cn1` [Example 14] here?
Answer: 0.138 nM

Question: What about the “OX2R Kb/OX1R Kb” value [2] of the same compound?
Answer: 319

Question: With `CCN(C(=O)c1cc(F)ccc1-c1ncccn1)[C@@H](C)CNc1ncc(C(F)(F)F)cn1` [Example 15] as the compound, how does the Kb [1, 3] read?
Answer: 0.0397 nM

Question: What about the “OX2R Kb/OX1R Kb” value [2] of the same compound?
Answer: 577

Question: And the fold higher potency [2]?
Answer: at least 20 fold

Question: How did the Kb [1, 3] turn out when `CCN(C(=O)c1ccc(F)cc1-c1ncccn1)[C@@H](C)CNc1ncc(C(F)(F)F)cn1` [Example 16] was run?
Answer: 0.0947 nM

Question: What about the “OX2R Kb/OX1R Kb” value [2] of the same compound?
Answer: 811

Question: And the fold higher potency [2]?
Answer: at least 20 fold

Question: How did the Kb [1, 3] turn out when `CCN(C(=O)c1ncccc1-c1ccccc1)[C@@H](C)CNc1ncc(C(F)(F)F)cn1` [Example 19] was run?
Answer: 0.12 nM

Question: And the “OX2R Kb/OX1R Kb” value [2]?
Answer: 104

Question: With `CCN(C(=O)c1cncnc1-c1ccccc1)[C@@H](C)CNc1ncc(C(F)(F)F)cn1` [Example 20] as the compound, how does the Kb [1, 3] read?
Answer: 0.566 nM

Question: What about the “OX2R Kb/OX1R Kb” value [2] of the same compound?
Answer: 120

Question: Which Kb [1, 3] does the source give for `CCN(C(=O)c1nccnc1-c1ccccc1)[C@@H](C)CNc1ncc(C(F)(F)F)cn1` [Example 21] here?
Answer: 0.363 nM

Question: What about the “OX2R Kb/OX1R Kb” value [2] of the same compound?
Answer: 154

Question: Which results are given for `CCN(C(=O)c1ccccc1-n1nccn1)[C@@H](C)CNc1cnc(C(F)(F)F)cn1` [Example 22]?
Answer: Kb [1, 3]: 0.0202 nM; OX2R Kb/OX1R Kb [2]: 366

Question: Which Kb [1, 3] does the source give for `CCN(C(=O)c1ccc(F)cc1-c1nnc(C)o1)[C@@H](C)CNc1cnc(C(F)(F)F)cn1` [Example 23] here?
Answer: 0.558 nM

Question: What about the “OX2R Kb/OX1R Kb” value [2] of the same compound?
Answer: 398

Question: With `CCN(C(=O)c1cccc(F)c1-n1nccn1)[C@@H](C)CNc1cnc(C(F)(F)F)cn1` [Example 24] as the compound, how does the Kb [1, 3] read?
Answer: 0.0141 nM

Question: What about the “OX2R Kb/OX1R Kb” value [2] of the same compound?
Answer: 709

Question: `CC[C@@H](CNc1cnc(C(F)(F)F)cn1)N(C)C(=O)c1cc(Cl)ccc1-n1nccn1` [Example 40 in WO2016/034882, reference compound] was tested. Which Kb [1, 3] did it give?
Answer: 0.18 nM

Question: What about the “OX2R Kb/OX1R Kb” value [2] of the same compound?
Answer: 211

Question: With `CC[C@@H](CNc1ncc(C(F)(F)F)cn1)N(C)C(=O)c1nc(C)ccc1-n1nccn1` [Example 46 in WO2016/034882] as the compound, how does the Kb [1, 3] read?
Answer: 1.56 nM

Question: What about the “OX2R Kb/OX1R Kb” value [2] of the same compound?
Answer: 240

Question: Which Kb [1, 4] does the source give for `CC[C@@H](CNc1ncc(C(F)(F)F)cn1)N(C)C(=O)c1nc(C)ccc1-c1ncccn1` [Example 84 in WO2016/034882, reference compound] here?
Answer: 2.2 nM

Question: What about the “OX2R Kb/OX1R Kb” value [2] of the same compound?
Answer: 104

Question: How did the Kb [1, 4] turn out when `CC[C@@H](CNc1ncc(C(F)(F)F)cn1)N(C)C(=O)c1nc(C)ccc1-n1cccn1` [Example 90 in WO2016/034882, reference compound] was run?
Answer: 1.3 nM

Question: And the Kb [1, 3]?
Answer: 2.3 nM

Question: Which results are given for `CC[C@@H](CNc1ncc(C(F)(F)F)cn1)N(C)C(=O)c1c(F)cccc1-n1nccn1` [Example 91 in WO2016/034882, reference compound]?
Answer: Kb [1, 4]: 3.63 nM; OX2R Kb/OX1R Kb [2]: 86
